We go through 14 compounds from ChEMBL document CHEMBL1961873, “Compounds: GSK PKIS; Assays: Nanosyn kinase panel” (2012).

For assay [1], the target named is T1, Mitogen-activated protein kinase 12 (Homo sapiens) (UniProt P53778).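 Note: values are averaged p38gamma kinase inhibition readings, compounds tested at 1 µM.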
T1 sequence (whole entry): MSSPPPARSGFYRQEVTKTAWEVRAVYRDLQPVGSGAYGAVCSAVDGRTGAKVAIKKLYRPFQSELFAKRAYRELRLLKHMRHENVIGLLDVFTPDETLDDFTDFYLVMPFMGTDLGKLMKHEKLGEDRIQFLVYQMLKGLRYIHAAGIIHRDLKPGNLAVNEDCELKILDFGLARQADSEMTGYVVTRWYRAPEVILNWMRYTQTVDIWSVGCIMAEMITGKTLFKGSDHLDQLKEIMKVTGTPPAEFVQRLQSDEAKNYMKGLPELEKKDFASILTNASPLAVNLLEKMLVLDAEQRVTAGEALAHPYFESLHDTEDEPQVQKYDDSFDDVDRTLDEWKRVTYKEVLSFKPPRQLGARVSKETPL
The settings on record: at 1 µM.

For assay [2], the target named is SRSF protein kinase 1 (Homo sapiens) (UniProt Q96SB4). The settings on record: at 0.1 µM.
UniProt Q96SB4, sequence (Q96SB4 whole entry): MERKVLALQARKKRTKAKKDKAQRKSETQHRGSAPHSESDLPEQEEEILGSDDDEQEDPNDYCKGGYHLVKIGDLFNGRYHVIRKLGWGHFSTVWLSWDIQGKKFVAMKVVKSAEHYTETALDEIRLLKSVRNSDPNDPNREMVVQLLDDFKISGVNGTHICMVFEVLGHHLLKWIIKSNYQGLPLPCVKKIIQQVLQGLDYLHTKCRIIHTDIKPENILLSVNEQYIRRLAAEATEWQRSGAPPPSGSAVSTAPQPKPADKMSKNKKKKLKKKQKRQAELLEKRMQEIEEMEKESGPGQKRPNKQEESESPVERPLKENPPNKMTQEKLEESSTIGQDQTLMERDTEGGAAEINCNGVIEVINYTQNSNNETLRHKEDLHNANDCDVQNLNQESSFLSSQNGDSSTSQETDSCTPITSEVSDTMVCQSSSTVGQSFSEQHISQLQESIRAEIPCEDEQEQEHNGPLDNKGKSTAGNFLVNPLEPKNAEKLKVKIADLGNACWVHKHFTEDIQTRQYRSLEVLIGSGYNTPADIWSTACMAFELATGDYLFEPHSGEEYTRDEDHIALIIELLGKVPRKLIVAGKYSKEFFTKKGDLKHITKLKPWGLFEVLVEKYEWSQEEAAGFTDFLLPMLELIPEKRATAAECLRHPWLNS
For assay [3] the target is unchanged. As to conditions: at 1 µM.
Assay [4] concerns the target Phosphatidylinositol 4,5-bisphosphate 3-kinase catalytic subunit alpha isoform (Homo sapiens) (UniProt P42336). As to conditions: at 0.1 µM.
UniProt P42336, sequence (P42336 whole entry, canonical isoform): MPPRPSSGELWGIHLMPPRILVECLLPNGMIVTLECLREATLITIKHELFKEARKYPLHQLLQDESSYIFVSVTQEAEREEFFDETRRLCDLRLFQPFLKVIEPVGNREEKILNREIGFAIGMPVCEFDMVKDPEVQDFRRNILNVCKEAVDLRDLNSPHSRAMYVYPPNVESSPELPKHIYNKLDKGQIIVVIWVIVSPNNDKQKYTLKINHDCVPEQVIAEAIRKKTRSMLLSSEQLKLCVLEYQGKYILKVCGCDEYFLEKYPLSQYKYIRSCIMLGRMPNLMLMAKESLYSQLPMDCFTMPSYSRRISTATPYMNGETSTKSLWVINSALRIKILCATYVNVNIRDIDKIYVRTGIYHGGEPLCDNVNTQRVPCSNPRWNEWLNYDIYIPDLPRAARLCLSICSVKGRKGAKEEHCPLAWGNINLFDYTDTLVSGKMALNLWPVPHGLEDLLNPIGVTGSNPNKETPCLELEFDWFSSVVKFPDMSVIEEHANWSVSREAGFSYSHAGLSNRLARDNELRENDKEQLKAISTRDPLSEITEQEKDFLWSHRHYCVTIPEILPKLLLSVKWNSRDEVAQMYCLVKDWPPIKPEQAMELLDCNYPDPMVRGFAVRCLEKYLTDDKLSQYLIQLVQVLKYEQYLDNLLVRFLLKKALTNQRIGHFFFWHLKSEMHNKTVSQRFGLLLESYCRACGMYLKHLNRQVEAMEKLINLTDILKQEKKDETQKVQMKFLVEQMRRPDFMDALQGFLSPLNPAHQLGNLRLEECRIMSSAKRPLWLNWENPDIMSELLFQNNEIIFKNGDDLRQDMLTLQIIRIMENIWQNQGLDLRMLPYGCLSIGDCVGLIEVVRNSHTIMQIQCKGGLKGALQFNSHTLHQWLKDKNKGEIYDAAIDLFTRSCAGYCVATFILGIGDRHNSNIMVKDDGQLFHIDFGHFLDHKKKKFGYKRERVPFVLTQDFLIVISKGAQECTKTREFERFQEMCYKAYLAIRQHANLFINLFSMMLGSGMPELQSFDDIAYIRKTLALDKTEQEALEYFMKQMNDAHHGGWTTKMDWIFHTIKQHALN
Assay [5] shares this target. The settings on record: at 1 µM.
Assay [6] concerns the target T2, Phosphatidylinositol 4,5-bisphosphate 3-kinase catalytic subunit delta isoform (Homo sapiens) (UniProt O00329).
T2 sequence (whole entry): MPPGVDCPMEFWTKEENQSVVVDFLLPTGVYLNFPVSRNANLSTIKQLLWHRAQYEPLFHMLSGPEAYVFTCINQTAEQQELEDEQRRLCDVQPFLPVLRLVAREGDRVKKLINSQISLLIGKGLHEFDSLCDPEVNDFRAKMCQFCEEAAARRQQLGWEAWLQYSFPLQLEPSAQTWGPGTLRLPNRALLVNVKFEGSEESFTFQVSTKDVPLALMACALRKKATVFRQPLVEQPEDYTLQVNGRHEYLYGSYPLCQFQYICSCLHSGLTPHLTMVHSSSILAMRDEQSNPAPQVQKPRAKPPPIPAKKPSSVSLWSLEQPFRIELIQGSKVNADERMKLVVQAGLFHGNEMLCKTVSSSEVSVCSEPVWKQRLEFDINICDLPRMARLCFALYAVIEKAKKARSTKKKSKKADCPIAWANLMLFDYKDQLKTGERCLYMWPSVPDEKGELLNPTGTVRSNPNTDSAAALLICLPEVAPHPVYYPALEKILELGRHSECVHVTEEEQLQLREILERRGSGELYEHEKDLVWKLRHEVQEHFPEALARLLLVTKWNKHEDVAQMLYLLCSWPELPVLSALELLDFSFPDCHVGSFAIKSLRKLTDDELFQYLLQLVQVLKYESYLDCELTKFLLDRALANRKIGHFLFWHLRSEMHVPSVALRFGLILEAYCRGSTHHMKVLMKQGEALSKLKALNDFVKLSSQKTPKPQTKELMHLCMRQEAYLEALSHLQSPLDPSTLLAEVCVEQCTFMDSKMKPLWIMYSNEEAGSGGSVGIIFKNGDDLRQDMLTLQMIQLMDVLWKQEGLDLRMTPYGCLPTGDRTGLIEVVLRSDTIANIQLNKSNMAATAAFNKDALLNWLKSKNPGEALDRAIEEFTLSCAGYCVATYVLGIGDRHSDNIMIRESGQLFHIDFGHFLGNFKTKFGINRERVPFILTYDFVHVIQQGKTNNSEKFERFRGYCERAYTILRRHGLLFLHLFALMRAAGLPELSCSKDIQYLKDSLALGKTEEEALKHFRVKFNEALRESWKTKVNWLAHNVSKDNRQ
As to conditions: at 0.1 µM.

In assay [7] the target is T2, Phosphatidylinositol 4,5-bisphosphate 3-kinase catalytic subunit delta isoform (Homo sapiens). As to conditions: at 1 µM.
Assay [8] has as its target Phosphatidylinositol 4-kinase beta (Homo sapiens) (UniProt Q9UBF8). As to conditions: at 0.1 µM.
UniProt Q9UBF8, sequence (Q9UBF8 whole entry, looked up): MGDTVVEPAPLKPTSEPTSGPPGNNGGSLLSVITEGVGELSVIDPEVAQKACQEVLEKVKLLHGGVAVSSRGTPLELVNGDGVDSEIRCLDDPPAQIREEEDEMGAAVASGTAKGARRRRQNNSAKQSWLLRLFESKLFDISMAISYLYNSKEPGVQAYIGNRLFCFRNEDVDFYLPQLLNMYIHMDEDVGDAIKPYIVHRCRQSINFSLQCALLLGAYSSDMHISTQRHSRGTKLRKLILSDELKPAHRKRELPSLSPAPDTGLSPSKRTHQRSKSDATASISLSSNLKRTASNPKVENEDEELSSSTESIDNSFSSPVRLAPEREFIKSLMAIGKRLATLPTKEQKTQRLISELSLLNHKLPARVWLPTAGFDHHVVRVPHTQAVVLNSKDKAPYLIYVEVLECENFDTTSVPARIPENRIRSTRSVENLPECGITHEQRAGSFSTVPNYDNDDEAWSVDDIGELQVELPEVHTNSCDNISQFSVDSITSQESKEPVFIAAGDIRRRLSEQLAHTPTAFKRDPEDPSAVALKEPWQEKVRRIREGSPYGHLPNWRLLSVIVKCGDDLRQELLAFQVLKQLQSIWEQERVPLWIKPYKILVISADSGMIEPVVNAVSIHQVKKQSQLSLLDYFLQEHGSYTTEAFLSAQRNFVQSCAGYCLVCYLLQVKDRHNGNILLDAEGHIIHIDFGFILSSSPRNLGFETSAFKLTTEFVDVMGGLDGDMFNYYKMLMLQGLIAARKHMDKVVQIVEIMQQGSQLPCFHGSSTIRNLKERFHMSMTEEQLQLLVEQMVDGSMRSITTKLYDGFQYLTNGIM
Assay [9] has the same target. As to conditions: at 1 µM.
The target of assay [10] is Sphingosine kinase 1 (Homo sapiens) (UniProt Q9NYA1). The settings on record: at 0.1 µM.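 Note: mean percent inhibition of SPHK1 activity, measured within the GSK PKIS screening panel.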
UniProt Q9NYA1, sequence (Q9NYA1 whole entry): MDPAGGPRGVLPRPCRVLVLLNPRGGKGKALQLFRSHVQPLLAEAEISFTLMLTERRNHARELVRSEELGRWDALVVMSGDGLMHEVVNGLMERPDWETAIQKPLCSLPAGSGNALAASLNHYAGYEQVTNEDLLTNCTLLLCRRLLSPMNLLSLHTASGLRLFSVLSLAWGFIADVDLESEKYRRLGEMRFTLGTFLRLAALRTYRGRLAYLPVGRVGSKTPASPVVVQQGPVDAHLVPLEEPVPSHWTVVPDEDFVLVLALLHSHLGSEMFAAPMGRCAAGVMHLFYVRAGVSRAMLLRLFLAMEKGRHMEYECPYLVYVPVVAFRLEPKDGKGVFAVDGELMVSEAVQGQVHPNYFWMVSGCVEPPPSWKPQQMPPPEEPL

Usually inhibition stands for the change of the read-out against control, counted positive when it falls.

The structures appear in SMILES notation. The entries are a selection whose mix differs from that of the whole data set.

Consider `Fc1ccc(Oc2nccc(-c3c(-c4ccc(F)cc4)ncn3C3CCNCC3)n2)cc1`, for which the inhibition in assay [1] is 5.26%; in [2], -2.19%; in assay [3] it was -1.04%; in assay [4] it was 2.7%; in assay [5] it was 1.19%; in [6], 0.14%. Moreover, the inhibition in assay [7] is 0.22%; in assay [8], 3.43%; in assay [9], 4.1%; in assay [10], -0.33%.

As to `O=C1NC(=O)C(c2ccccc2)=C1Nc1ccccc1`, the inhibition was 4.97% in [1]; -0.98% in [2]; -0.11% in [3]; 3.99% in assay [4]; 4.22% in assay [5]; 1.58% in assay [6]. In addition, the inhibition was 1.62% in assay [7], -1.79% in [8], 5.21% in assay [9] and 0% in assay [10].

As for `Cc1cccc(Oc2nccc(-c3c(-c4ccc(F)cc4)ncn3C3CCNCC3)n2)c1C`, the inhibition is 3.87% in assay [1]; -3.43% in assay [2]; -2.38% in assay [3]; 4.19% in [4]; 4.62% in assay [5]; 2.65% in [6]. The inhibition in assay [7] was 4.45%; in [8] it was -1.28%; in assay [9] it was 0.29%; in assay [10] it was 1.94%.

Regarding `Fc1ccc(-c2ncn(C3CCNCC3)c2-c2ccnc(Oc3cccc(C(F)(F)F)c3)n2)cc1`, the inhibition in assay [1] was 3.95%; in [2] it was -2.32%; in assay [3] it was -2.22%; in assay [4], 5.7%; in assay [5] it was 11.4%; in [6] it was 2.47%. Further, the inhibition in assay [7] is 8.26%; in assay [8], -4.78%; in assay [10], 0.26%.

As for `NC(=O)CCc1ccccc1Oc1nccc(-c2c(-c3ccc(F)cc3)ncn2C2CCNCC2)n1`, the inhibition in assay [1] was -0.59%; in assay [2] it was 1.55%; in [3], 0.9%; in assay [4] it was -1.58%; in [5], -0.54%; in assay [6], -1.22%. The figures for the inhibition in [7], in assay [9] and in assay [10] were 1.73%, 4.03% and 1.89%, respectively.

Consider `Fc1ccc(-c2ncn(C3CCNCC3)c2-c2ccnc(Oc3cccc(F)c3)n2)cc1`, for which the inhibition in assay [1] was 5.53%; in [2], -1.58%; in assay [3], -1.18%; in [4], 4.5%; in [5], 5.4%; in [6], -0.09%. For the same compound, the inhibition was 2.59% in assay [7], -2.95% in [8], 1.83% in assay [9] and 4.74% in assay [10].

With `O=C1NC(=O)C(c2cccc([N+](=O)[O-])c2)=C1Nc1cc(Cl)c(O)c(Cl)c1`, the inhibition in [1] is 0.16%; in assay [2], -1.92%; in assay [3], -1.65%; in [4], 1.4%; in assay [5], 3.22%; in assay [6] it was -0.25%. Besides, the inhibition in [7] was -1.09%; in assay [8] it was 7.07%; in [9], 6.09%; in [10] it was 0.59%.

For `CC(C)(C)c1ccc(Oc2nccc(-c3c(-c4ccc(F)cc4)ncn3C3CCNCC3)n2)cc1`, the inhibition in [1] is 4.32%; in assay [2], -3.4%; in assay [3] it was -2.03%; in assay [4], 2.87%; in assay [5], 1.62%; in [6], 1.14%. Moreover, the inhibition in [7] is 5.35%; in [8] it was -0.74%; in [9], 1.52%; in assay [10], 5.13%.

Take `CS(=O)(=O)c1ccc(Oc2nccc(-c3c(-c4ccc(F)cc4)ncn3C3CCNCC3)n2)cc1`: the inhibition in [1] was 3.91%; in [2], -2.72%; in [3] it was -3.01%; in assay [4], 4.89%; in [5] it was 9.97%; in assay [6], 0.72%. Further, the inhibition in [7] was 6.19%; in assay [8] it was 0.13%; in assay [9] it was -3.67%; in assay [10], -0.26%.

`COc1ccccc1C1=C(Nc2ccccc2)C(=O)NC1=O`: the inhibition in [1] is 2.06%; in [2] it was -0.85%; in assay [3] it was 0.68%; in assay [4], 1.86%; in assay [5], 1.82%; in assay [6], 0.58%. For the same compound, the inhibition is -0.52% in [7], -1.79% in assay [8], 2.48% in assay [9] and 0% in assay [10].

In the case of `COc1ccccc1Oc1nccc(-c2c(-c3ccc(F)cc3)ncn2C2CCNCC2)n1`, the inhibition was 5.21% in assay [1]; -2.79% in assay [2]; -2.14% in assay [3]; 4.16% in assay [4]; 4.47% in [5]; 0.8% in assay [6]. The inhibition was 2.11% in assay [7], 4.36% in assay [8], -4.4% in [9] and 0.67% in [10].

Take `O=C(O)c1ccc(Oc2nccc(-c3c(-c4ccc(F)cc4)ncn3C3CCNCC3)n2)cc1`: the inhibition in assay [1] was 5.25%; in [2], -2.32%; in assay [3], -1.83%; in assay [4] it was 4.28%; in [5], 3.41%; in [6] it was 0.85%. In addition, the inhibition in assay [7] worked out at 0.96%; in assay [8], 0.78%; in [9], 17.6%; in assay [10] it was 1.88%.

For `Fc1ccc(-c2ncn(C3CCNCC3)c2-c2ccnc(Oc3ccc(Cl)cc3)n2)cc1`, the inhibition in [1] is 1.63%; in assay [2], 0.07%; in assay [3], -0.3%; in assay [4] it was -1.35%; in assay [5] it was -1.09%; in assay [6] it was -2.92%. In addition, the inhibition was 0.81% in [7], -1.1% in [8], -0.43% in assay [9] and -0.05% in [10].

For `O=C1NC(=O)C(c2ccccc2Cl)=C1Nc1cc(Cl)c(O)c(Cl)c1`, the inhibition was 2.38% in [1]; -0.35% in assay [2]; 2.05% in assay [3]; 3.32% in [4]; 3.87% in assay [5]; 0.68% in assay [6]. Moreover, the inhibition is 0.51% in assay [7], 1.46% in [8], 1.42% in assay [9] and -0.6% in assay [10].
